The values below come from paper PMC3335008.

Sequences of proteins named here, by UniProt entry; tags and fusion partners are left off.
UniProt O00425: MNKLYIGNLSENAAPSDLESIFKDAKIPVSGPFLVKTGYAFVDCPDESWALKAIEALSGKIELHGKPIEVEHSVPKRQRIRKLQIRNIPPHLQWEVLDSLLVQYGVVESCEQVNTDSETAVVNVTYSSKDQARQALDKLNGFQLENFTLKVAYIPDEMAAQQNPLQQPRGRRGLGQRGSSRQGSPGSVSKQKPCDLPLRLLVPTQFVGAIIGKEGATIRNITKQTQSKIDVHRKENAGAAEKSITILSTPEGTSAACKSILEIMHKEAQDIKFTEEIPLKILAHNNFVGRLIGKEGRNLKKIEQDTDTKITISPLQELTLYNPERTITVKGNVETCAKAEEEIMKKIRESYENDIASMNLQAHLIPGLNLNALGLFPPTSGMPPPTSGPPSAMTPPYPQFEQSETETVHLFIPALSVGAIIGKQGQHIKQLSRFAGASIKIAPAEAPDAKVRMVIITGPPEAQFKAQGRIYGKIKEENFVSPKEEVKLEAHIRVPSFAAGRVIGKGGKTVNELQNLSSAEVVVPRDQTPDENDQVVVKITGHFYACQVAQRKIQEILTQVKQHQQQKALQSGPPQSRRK
UniProt P11940: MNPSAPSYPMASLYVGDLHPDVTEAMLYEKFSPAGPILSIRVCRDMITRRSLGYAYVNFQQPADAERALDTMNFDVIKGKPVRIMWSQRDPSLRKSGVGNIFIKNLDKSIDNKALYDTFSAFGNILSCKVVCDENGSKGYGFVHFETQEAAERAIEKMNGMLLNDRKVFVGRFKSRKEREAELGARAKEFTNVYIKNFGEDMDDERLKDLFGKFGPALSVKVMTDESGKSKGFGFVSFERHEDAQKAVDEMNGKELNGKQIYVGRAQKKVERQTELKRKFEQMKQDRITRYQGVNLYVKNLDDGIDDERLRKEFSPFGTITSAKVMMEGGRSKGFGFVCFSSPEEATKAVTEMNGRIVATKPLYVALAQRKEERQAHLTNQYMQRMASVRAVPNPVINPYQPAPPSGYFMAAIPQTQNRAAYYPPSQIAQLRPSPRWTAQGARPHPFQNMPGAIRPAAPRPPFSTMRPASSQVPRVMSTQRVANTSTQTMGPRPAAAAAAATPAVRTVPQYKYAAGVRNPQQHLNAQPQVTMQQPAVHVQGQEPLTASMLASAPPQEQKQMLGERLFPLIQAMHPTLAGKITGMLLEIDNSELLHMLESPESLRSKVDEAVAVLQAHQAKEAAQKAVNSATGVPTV
UniProt Q02156: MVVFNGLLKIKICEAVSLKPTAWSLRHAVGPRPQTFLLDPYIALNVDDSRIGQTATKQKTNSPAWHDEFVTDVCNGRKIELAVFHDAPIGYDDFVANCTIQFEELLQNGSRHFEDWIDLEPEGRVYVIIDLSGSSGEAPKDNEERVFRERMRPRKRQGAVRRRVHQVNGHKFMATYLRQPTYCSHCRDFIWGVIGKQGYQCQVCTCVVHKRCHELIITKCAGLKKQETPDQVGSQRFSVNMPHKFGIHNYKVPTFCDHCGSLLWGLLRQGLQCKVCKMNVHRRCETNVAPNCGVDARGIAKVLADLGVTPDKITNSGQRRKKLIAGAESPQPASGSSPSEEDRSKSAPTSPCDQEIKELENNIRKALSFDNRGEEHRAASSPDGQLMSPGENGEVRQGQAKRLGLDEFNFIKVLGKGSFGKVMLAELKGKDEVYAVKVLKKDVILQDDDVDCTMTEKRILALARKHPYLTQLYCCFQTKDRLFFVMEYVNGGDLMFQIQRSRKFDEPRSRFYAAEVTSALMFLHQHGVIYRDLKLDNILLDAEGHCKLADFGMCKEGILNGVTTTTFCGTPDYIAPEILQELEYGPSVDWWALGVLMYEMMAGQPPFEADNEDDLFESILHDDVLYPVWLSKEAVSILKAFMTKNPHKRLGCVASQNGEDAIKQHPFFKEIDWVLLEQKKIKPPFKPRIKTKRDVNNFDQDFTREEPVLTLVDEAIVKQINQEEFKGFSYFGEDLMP

Results are given in words; binding and its absence hold for the method and conditions named. For part of these data: In cells and extracts the contact can be indirect. Some entries that bind do so weakly or less than the wild type. For part of these data: Sequences can lack the tags named with a protein.

For assay [1], the target named is GST/His fusion of G3BP1 (human (cDNA from MDA-MB-231 cells)) (UniProt Q13283). The assay is described as follows: pull-down; 80 ng PKCα with 4 µg GST-G3BP recombinant protein in 100 µl 20 mM Tris pH 7.4, 0.1 mM EDTA, 100 mM NaCl, 1 mM DTT, 1 h at 4°C; GST captured (anti-GST MicroBeads in the methods, GSH-coupled sepharose in the legend); Western blot; both purified. On the technique in general: In western blotting, separated proteins are transferred to a membrane and probed.

Assay [2] addresses T1, GST/His fusion of G3BP2a (human (cDNA from MDA-MB-231 cells)) (UniProt Q9UN86).
T1 sequence: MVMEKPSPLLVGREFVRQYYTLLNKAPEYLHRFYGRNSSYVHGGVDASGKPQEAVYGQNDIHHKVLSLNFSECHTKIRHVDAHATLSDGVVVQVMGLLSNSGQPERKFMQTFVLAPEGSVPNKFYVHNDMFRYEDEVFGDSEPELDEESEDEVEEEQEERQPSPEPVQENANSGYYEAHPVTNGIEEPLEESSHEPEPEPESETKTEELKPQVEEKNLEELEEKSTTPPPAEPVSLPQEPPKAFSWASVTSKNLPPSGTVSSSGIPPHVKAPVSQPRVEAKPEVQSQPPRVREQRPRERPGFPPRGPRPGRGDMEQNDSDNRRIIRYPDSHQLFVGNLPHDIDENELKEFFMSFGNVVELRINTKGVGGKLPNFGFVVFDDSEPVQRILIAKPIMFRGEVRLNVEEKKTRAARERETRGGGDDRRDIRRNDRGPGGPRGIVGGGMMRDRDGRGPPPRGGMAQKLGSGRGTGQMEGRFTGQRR
Described as above.

Assay [3] concerns the target T2, GST/His fusion of G3BP2b (UniProt Q9UN86).
T2 sequence: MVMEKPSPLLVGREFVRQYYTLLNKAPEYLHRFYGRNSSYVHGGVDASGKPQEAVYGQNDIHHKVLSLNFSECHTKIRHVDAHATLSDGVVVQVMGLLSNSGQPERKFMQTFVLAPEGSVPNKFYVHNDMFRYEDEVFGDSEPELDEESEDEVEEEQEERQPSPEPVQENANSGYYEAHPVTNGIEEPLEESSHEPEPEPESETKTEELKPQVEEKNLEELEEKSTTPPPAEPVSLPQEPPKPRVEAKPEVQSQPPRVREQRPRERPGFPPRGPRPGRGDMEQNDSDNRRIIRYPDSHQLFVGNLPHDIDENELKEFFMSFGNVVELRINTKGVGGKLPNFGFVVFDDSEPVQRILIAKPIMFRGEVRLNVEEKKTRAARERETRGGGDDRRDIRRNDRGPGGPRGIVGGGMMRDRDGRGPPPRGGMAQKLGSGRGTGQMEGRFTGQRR
The description is as above.

Assay [4] has as its target T3, RasGAP binding protein 2 (G3BP2), endogenous (human (endogenous in SK-N-BE(2)C)) (UniProt Q9UN86).
T3 sequence: T1 sequence
Nature of the assay: co-IP; PKCα or G3BP2 immunoprecipitated from SK-N-BE(2)C lysate treated with RNase; lysis buffer 150 mM NaCl, 1% triton X-100, 50 mM Tris HCl, pH 8.0; Western blot.

For assay [5], the target named is T3, RasGAP binding protein 2 (G3BP2), endogenous (human (endogenous in SK-N-BE(2)C)). Nature of the assay: co-IP; PKCα or G3BP2 immunoprecipitated from SK-N-BE(2)C lysate treated with RNase inhibitor; lysis buffer 150 mM NaCl, 1% triton X-100, 50 mM Tris HCl, pH 8.0; Western blot.
Assay [6] has as its target IGF-II mRNA binding protein 3 (IGF2BP3), endogenous (human (endogenous in SK-N-BE(2)C)) (UniProt O00425). Nature of the assay: co-IP; antibodies towards IGF2BP3, PABPC1 and G3BP2 on lysates of cells subjected to heat shock; precipitates analysed for PKCε.
Assay [7] concerns the target T3, RasGAP binding protein 2 (G3BP2), endogenous (human (endogenous in SK-N-BE(2)C)). The assay is described as above.
Assay [8] addresses cytoplasmic poly(A)+ binding protein (PABPC1), endogenous (human (endogenous in SK-N-BE(2)C)) (UniProt P11940). The assay is described as follows: co-IP; antibodies towards IGF2BP3, PABPC1 and G3BP2 on lysates of cells under normal growth conditions (no heat shock); precipitates analysed for PKCε.
The target of assay [9] is IGF-II mRNA binding protein 3 (IGF2BP3), endogenous (human (endogenous in SK-N-BE(2)C)) (UniProt O00425). Described as above.
In assay [10] the target is T3, RasGAP binding protein 2 (G3BP2), endogenous (human (endogenous in SK-N-BE(2)C)). The description is as above.
The target is the same in assay [11]. The assay is described as follows: co-IP; G3BP2 antibody on untreated SK-N-BE(2)C lysate (Fig. 2B); lysis buffer 150 mM NaCl, 1% triton X-100, 50 mM Tris HCl, pH 8.0; blot with PKCα and phospho-PKC antibodies.
Assay [12] deals with Protein kinase C alpha (PKCα), endogenous (human (endogenous in SK-N-BE(2)C)) (UniProt P17252). The assay is described as follows: co-IP; PKCα or G3BP2 immunoprecipitated from SK-N-BE(2)C lysate treated with RNase; lysis buffer 150 mM NaCl, 1% triton X-100, 50 mM Tris HCl, pH 8.0; Western blot.
Assay [13] concerns the target EGFP fusion of the C2 domain of PKCα (human) (UniProt P17252). The assay is described as follows: co-IP; EGFP fusions of PKCα domains expressed in SK-N-BE(2)C cells, precipitated with anti-GFP-conjugated magnetic beads; polysome lysis buffer (100 mM KCl, 5 mM MgCl2, 10 mM HEPES, 1 mM DTT, 1% IgePAL CA-630, pH 7.0); Western blot for endogenous partners.
Assay [14] has as its target Protein kinase C alpha (PKCα), endogenous (human (endogenous in SK-N-BE(2)C)) (UniProt P17252). Nature of the assay: co-IP; PKCα or G3BP2 immunoprecipitated from SK-N-BE(2)C lysate treated with RNase inhibitor; lysis buffer 150 mM NaCl, 1% triton X-100, 50 mM Tris HCl, pH 8.0; Western blot.
The target of assay [15] is T4, TIAR, endogenous (human (endogenous in SK-N-BE(2)C)) (UniProt Q01085).
T4 sequence: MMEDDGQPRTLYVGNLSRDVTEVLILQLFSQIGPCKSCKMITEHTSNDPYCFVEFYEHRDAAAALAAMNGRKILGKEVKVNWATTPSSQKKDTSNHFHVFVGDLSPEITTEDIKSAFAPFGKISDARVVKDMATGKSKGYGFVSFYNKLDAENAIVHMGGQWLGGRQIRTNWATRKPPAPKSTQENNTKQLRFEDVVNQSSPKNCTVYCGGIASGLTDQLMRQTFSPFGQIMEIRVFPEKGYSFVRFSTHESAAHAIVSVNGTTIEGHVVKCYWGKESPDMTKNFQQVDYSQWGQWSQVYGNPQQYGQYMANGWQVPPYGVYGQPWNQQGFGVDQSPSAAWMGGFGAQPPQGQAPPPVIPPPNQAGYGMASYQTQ
Nature of the assay: co-IP; anti-TIAR on sonicated lysates of SK-N-BE(2)C cells transfected with EGFP, EGFP-C1a or EGFP-C1b and kept at 37°C or 44°C for 1 h; Western blot.

Consider “PKCα isozyme (Sigma), recombinant (from UniProt P17252 1-672) (enzyme)”, for which the binding entry in assay [1], in [2] and in assay [3] was “binds” in each case.

With “Protein kinase C alpha (PKCα), endogenous (from UniProt P17252 1-672)”, the binding entry in assay [4] and in [5] was “binds” each time.

As to “Protein kinase C epsilon (PKCε), endogenous (from UniProt Q02156 1-737)”, the binding entry in assay [6] is “binds”; in assay [7], “binds”; in assay [8] it was “no binding”; in [9] it was “no binding (condition: cells without heat shock)”; in assay [10], “no binding (condition: cells without heat shock)”.

Take “slower migrating PKCα variant with both C-terminal phosphorylation sites phosphorylated, endogenous (from UniProt P17252 1-672)”: the binding entry in [11] is “binds”.

B1: RasGAP binding protein 2 (G3BP2), endogenous (protein, UniProt Q9UN86 1-482)
chain: T1 sequence
With B1, the binding result in [12], in assay [13], in assay [14] and in [15] was “binds” each time.
